{"source": "the supplement of paper PMC7826260", "note": "The other results are listed elsewhere or left out. The data describe in vitro nicking of single-stranded DNA by Rep domains (1 h at 37 °C, 3 µM enzyme); the outer parts of the 90-letter strands are left off. Values are log2 of uncut reads against the no-enzyme pool; uncut sequences lie near 0, cut ones below; no hit call is given. The scaling is to total reads; uncut strands gain when others are lost, and binding without cutting may add a little."}
{"tested_on": "T1, Rep nickase domain of tomato yellow leaf curl virus", "T1 sequence (residues 1-136, tag not shown)": "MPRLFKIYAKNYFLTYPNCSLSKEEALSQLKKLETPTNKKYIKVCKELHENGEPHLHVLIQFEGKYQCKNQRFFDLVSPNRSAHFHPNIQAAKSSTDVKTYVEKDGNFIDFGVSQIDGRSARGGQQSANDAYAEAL", "test": "uncleaved DNA left, log2 of reads against the no-enzyme library (log2 ratio); higher = less cleavage (more negative = more Rep cleavage of the k-mer); sequences stand for … in CTCGTCCG…ACCGGAGA", "experimental": "(§1)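 A pool of 90-nt single-stranded DNAs with seven random bases just before the constant AC of the nick site (name = the seven bases) was cut by 3 µM recombinant His6-SUMO-tagged Rep nickase domain (300 nM DNA, 50 mM HEPES pH 8.0, 50 mM NaCl, 1 mM MnCl2, 1 h, 37 °C, three replicates). Uncut DNA was amplified and sequenced.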"}
{"sequence": "TGGAGTG", "uncleaved DNA left (log2)": -0.105}
{"sequence": "TGCAACC", "uncleaved DNA left (log2)": 0.0442}
{"sequence": "TCGCTTG", "uncleaved DNA left (log2)": -0.0357}
{"sequence": "CAATTAA", "uncleaved DNA left (log2)": -0.115}
{"sequence": "TCATAAG", "uncleaved DNA left (log2)": 0.0472}
{"sequence": "TTATTTA", "uncleaved DNA left (log2)": 0.0458}
{"sequence": "AAGCGAG", "uncleaved DNA left (log2)": 0.0587}
{"sequence": "TTCCTAT", "uncleaved DNA left (log2)": 0.0697}
{"sequence": "GGCTGGG", "uncleaved DNA left (log2)": 0.0171}
{"sequence": "CACAAAG", "uncleaved DNA left (log2)": 0.0868}
{"sequence": "CGTTGCC", "uncleaved DNA left (log2)": 0.116}
{"sequence": "GACAAGC", "uncleaved DNA left (log2)": -0.0232}
{"sequence": "CTCAGTT", "uncleaved DNA left (log2)": -0.127}
{"sequence": "TATAAGT", "uncleaved DNA left (log2)": 0.138}
{"sequence": "GCCCGAA", "uncleaved DNA left (log2)": 0.0184}
{"sequence": "AATTAGA", "uncleaved DNA left (log2)": -0.039}
{"sequence": "CGATTTT", "uncleaved DNA left (log2)": 0.133}
{"sequence": "GTGTTTG", "uncleaved DNA left (log2)": -0.0367}
{"sequence": "ACAAAAA", "uncleaved DNA left (log2)": -0.0591}
{"sequence": "GTTTCCT", "uncleaved DNA left (log2)": 0.11}
{"sequence": "ACAAGAT", "uncleaved DNA left (log2)": 0.0314}
{"sequence": "ACATGAT", "uncleaved DNA left (log2)": -0.0126}
{"sequence": "AGCGCAT", "uncleaved DNA left (log2)": 0.0804}
{"sequence": "ACGTGAC", "uncleaved DNA left (log2)": -0.185}
{"sequence": "AGATCTT", "uncleaved DNA left (log2)": 0.00767}
{"sequence": "GAATCCC", "uncleaved DNA left (log2)": 0.0863}
{"sequence": "CCTGTCG", "uncleaved DNA left (log2)": -0.123}
{"sequence": "GCCAGGG", "uncleaved DNA left (log2)": -0.0682}
{"sequence": "CTCATAC", "uncleaved DNA left (log2)": -0.0276}
{"sequence": "AGACGGC", "uncleaved DNA left (log2)": -0.128}
{"sequence": "AACCGAG", "uncleaved DNA left (log2)": 0.0424}
{"sequence": "CCCCAAC", "uncleaved DNA left (log2)": -0.351}
{"sequence": "GATCTCA", "uncleaved DNA left (log2)": 0.237}
{"sequence": "GGTCCTA", "uncleaved DNA left (log2)": 0.125}
{"sequence": "ATTCCGT", "uncleaved DNA left (log2)": 0.0265}
{"sequence": "GTGTGAT", "uncleaved DNA left (log2)": -0.0629}
{"sequence": "CATATCA", "uncleaved DNA left (log2)": 0.138}
{"sequence": "CGTATTC", "uncleaved DNA left (log2)": -0.0813}
{"sequence": "TTATGGT", "uncleaved DNA left (log2)": 0.0166}
{"sequence": "TATGGAA", "uncleaved DNA left (log2)": 0.0462}
{"tested_on": "T2, Rep nickase domain of wheat dwarf virus", "T2 sequence (residues 1-137, tag not shown)": "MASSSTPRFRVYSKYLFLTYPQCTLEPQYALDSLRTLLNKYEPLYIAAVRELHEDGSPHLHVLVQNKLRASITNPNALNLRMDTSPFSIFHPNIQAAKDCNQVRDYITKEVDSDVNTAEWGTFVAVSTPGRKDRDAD", "test": "uncleaved DNA left, log2 of reads against the no-enzyme library (log2 ratio); higher = less cleavage (more negative = more Rep cleavage of the k-mer); sequences stand for … in CTCGTCCG…ACCGGAGA", "experimental": "as §1"}
{"sequence": "TGGAGTG", "uncleaved DNA left (log2)": -0.0307}
{"sequence": "TGCAACC", "uncleaved DNA left (log2)": 0.00232}
{"sequence": "TCGCTTG", "uncleaved DNA left (log2)": 0.0485}
{"sequence": "CAATTAA", "uncleaved DNA left (log2)": -0.0632}
{"sequence": "TCATAAG", "uncleaved DNA left (log2)": -0.0735}
{"sequence": "TTATTTA", "uncleaved DNA left (log2)": 0.0442}
{"sequence": "AAGCGAG", "uncleaved DNA left (log2)": 0.0898}
{"sequence": "TTCCTAT", "uncleaved DNA left (log2)": 0.192}
{"sequence": "GGCTGGG", "uncleaved DNA left (log2)": -0.023}
{"sequence": "CACAAAG", "uncleaved DNA left (log2)": -0.0144}
{"sequence": "CGTTGCC", "uncleaved DNA left (log2)": -0.303}
{"sequence": "GACAAGC", "uncleaved DNA left (log2)": 0.0254}
{"sequence": "CTCAGTT", "uncleaved DNA left (log2)": -0.256}
{"sequence": "TATAAGT", "uncleaved DNA left (log2)": 0.00958}
{"sequence": "GCCCGAA", "uncleaved DNA left (log2)": 0.0759}
{"sequence": "AATTAGA", "uncleaved DNA left (log2)": 0.00339}
{"sequence": "CGATTTT", "uncleaved DNA left (log2)": -0.15}
{"sequence": "GTGTTTG", "uncleaved DNA left (log2)": -0.0802}
{"sequence": "ACAAAAA", "uncleaved DNA left (log2)": 0.0786}
{"sequence": "GTTTCCT", "uncleaved DNA left (log2)": 0.213}
{"sequence": "ACAAGAT", "uncleaved DNA left (log2)": -0.000515}
{"sequence": "ACATGAT", "uncleaved DNA left (log2)": -0.00453}
{"sequence": "AGCGCAT", "uncleaved DNA left (log2)": 0.122}
{"sequence": "ACGTGAC", "uncleaved DNA left (log2)": -0.0492}
{"sequence": "AGATCTT", "uncleaved DNA left (log2)": -0.136}
{"sequence": "GAATCCC", "uncleaved DNA left (log2)": -0.274}
{"sequence": "CCTGTCG", "uncleaved DNA left (log2)": -0.058}
{"sequence": "GCCAGGG", "uncleaved DNA left (log2)": 0.0606}
{"sequence": "CTCATAC", "uncleaved DNA left (log2)": -0.0996}
{"sequence": "AGACGGC", "uncleaved DNA left (log2)": 0.0601}
{"sequence": "AACCGAG", "uncleaved DNA left (log2)": 0.119}
{"sequence": "CCCCAAC", "uncleaved DNA left (log2)": -0.232}
{"sequence": "GATCTCA", "uncleaved DNA left (log2)": 0.122}
{"sequence": "GGTCCTA", "uncleaved DNA left (log2)": 0.164}
{"sequence": "ATTCCGT", "uncleaved DNA left (log2)": -0.0912}
{"sequence": "GTGTGAT", "uncleaved DNA left (log2)": 0.0494}
{"sequence": "CATATCA", "uncleaved DNA left (log2)": 0.162}
{"sequence": "CGTATTC", "uncleaved DNA left (log2)": 0.0283}
{"sequence": "TTATGGT", "uncleaved DNA left (log2)": -0.154}
{"sequence": "TATGGAA", "uncleaved DNA left (log2)": 0.18}
